Some of the results follow.

The test system of one assay is HSkMC. Put plainly: cytotoxicity call (relative viability < 0.9). The following applies: 10 µM.
Another assay deals with HepG2. Description: cytotoxicity call (relative viability < 0.9). The following applies: 10 µM.
The test system of the next assay is S. aureus RN4220. Put plainly: growth inhibition call (relative growth <= 0.2). The settings on record: 50 µM.

Turning to `C[C@@H]1CN([C@@H](C)CO)C(=O)c2cccc(NC(=O)c3nc4ccccc4s3)c2O[C@H]1CN(C)C(=O)Nc1ccc(F)cc1`, the cytotoxicity call in the assay on HSkMC and in the assay with HepG2 was “inactive” each time. Further, the growth inhibition call in the assay with S. aureus RN4220 was “inactive”.
With `C[C@@H]1CN([C@@H](C)CO)C(=O)Cc2cc(NC(=O)Nc3ccc4c(c3)OCO4)ccc2O[C@H]1CN(C)C(=O)Nc1ccc(C(F)(F)F)cc1`, the cytotoxicity call in the assay with HSkMC and in the assay on HepG2 was “inactive” in each case. The growth inhibition call in the assay on S. aureus RN4220 was “inactive”.
Turning to `CCC(C=CC(C)C1CCC2C3CC=C4CC(O)CCC4(C)C3CCC12C)C(C)C` (stereo not drawn), the cytotoxicity call in the assay on HSkMC and in the assay with HepG2 was “inactive” in each case. Also, the growth inhibition call in the assay on S. aureus RN4220 is “inactive”.
Consider `C[C@@H]1CCCCO[C@H](CN(C)Cc2ccc(C(=O)O)cc2)[C@@H](C)CN([C@H](C)CO)C(=O)c2cc(NC(=O)Nc3ccc(F)cc3)ccc2O1`, for which the cytotoxicity call in the assay on HSkMC and in the assay with HepG2 was “inactive” in each case. In addition, in the assay on S. aureus RN4220, the growth inhibition call is “inactive”.
Take `O=C(CCCCCC(=O)Nc1ccccc1O)N/N=C/[C@H](O)[C@@H](O)[C@H](O)[C@H](O)CO[C@H]1O[C@H](CO)[C@H](O)[C@H](O)[C@H]1O`: the cytotoxicity call with HSkMC and in the assay with HepG2 was “inactive” throughout. The growth inhibition call in the assay with S. aureus RN4220 is “inactive”.
With `C[C@H](CO)N1C[C@H](C)[C@H](CN(C)C(=O)Nc2ccc(C(F)(F)F)cc2)Oc2c(NC(=O)c3nc4ccccc4s3)cccc2C1=O`, the cytotoxicity call with HSkMC and with HepG2 was “inactive” each time. Further, the growth inhibition call in the assay on S. aureus RN4220 was “inactive”.
On to `C[C@H](CO)N1C[C@H](C)[C@H](CN(C)S(=O)(=O)c2ccc(C#N)cc2)Oc2ncc(C#CCN(C)C)cc2C1=O`, for which the cytotoxicity call in the assay with HSkMC and in the assay on HepG2 was “inactive” each time. Besides, in the assay on S. aureus RN4220, the growth inhibition call is “inactive”.
In the case of `C[C@@H]1CCCCO[C@@H](CN(C)Cc2ccc3c(c2)OCO3)[C@H](C)CN([C@H](C)CO)C(=O)c2cc(NC(=O)Nc3cccc4ccccc34)ccc2O1`, the cytotoxicity call in the assay on HSkMC and with HepG2 was “active” each time. In addition, in the assay with S. aureus RN4220, the growth inhibition call is “inactive”.
For the molecule `CCCC(=O)Nc1ccc2c(c1)C(=O)N(C)C[C@H](OC)[C@H](C)CN(Cc1ccc(-c3ccccn3)cc1)[C@H](C)CO2`, the cytotoxicity call in the assay with HSkMC and with HepG2 was “inactive” in each case. Further, the growth inhibition call in the assay with S. aureus RN4220 was “inactive”.
On to `COc1cccc(NC(=O)N[C@H]2CC[C@H](CC(=O)N3CCOCC3)O[C@@H]2CO)c1`, for which the cytotoxicity call with HSkMC and in the assay on HepG2 was “inactive” in each case. In addition, the growth inhibition call in the assay on S. aureus RN4220 is “inactive”.
With `N#C/C(=C\c1ccc(C(F)(F)F)cc1)c1c[nH]c2ccccc12`, the cytotoxicity call in the assay with HSkMC and in the assay with HepG2 was “inactive” throughout. Besides, the growth inhibition call with S. aureus RN4220 was “inactive”.
For `CCCNC(=O)N1C[C@]2(CN(C2)S(=O)(=O)c2ccc(cc2)OC)c2c(n(c3cc(ccc23)OC)C)[C@@H]1CO`, the cytotoxicity call in the assay with HSkMC and in the assay on HepG2 was “inactive” in each case. Moreover, in the assay on S. aureus RN4220, the growth inhibition call is “inactive”.
As for `N#C[C@@H]1N[C@H](CO)[C@@H]1c1ccccc1`, the cytotoxicity call in the assay with HSkMC and with HepG2 was “inactive” throughout. Moreover, the growth inhibition call in the assay with S. aureus RN4220 was “inactive”.
Turning to `CC1=C(/C=C/C(C)=C/C=C/C(C)=C/CO)C(C)(C)CCC1`, the cytotoxicity call in the assay with HSkMC and with HepG2 was “inactive” in each case. Besides, in the assay with S. aureus RN4220, the growth inhibition call was “inactive”.
With `Cc1noc(C)c1S(=O)(=O)Nc1cccc2c1O[C@@H](CN(C)C(=O)Nc1ccccc1)[C@@H](C)CN([C@@H](C)CO)C2=O`, the cytotoxicity call in the assay with HSkMC and in the assay with HepG2 was “inactive” each time. In the assay with S. aureus RN4220, the growth inhibition call is “inactive”.
With `C[C@H]1CN([C@@H](C)CO)S(=O)(=O)c2ccc(Br)cc2O[C@@H]1CN(C)S(=O)(=O)c1ccc(F)cc1`, the cytotoxicity call in the assay on HSkMC and in the assay with HepG2 was “inactive” each time. For the same molecule, the growth inhibition call with S. aureus RN4220 was “inactive”.
As for `C[C@@H]1CN([C@H](C)CO)C(=O)Cc2cc(NC(=O)Nc3ccc4c(c3)OCO4)ccc2O[C@@H]1CN(C)Cc1ccc(C(=O)Nc2ccccc2N)cc1`, the cytotoxicity call with HSkMC was “inactive”. The cytotoxicity call in the assay on HepG2 was “active”. For the same molecule, the growth inhibition call with S. aureus RN4220 was “inactive”.
Turning to `Cc1ccc(S(=O)(=O)N(C)C[C@H]2Oc3ccc(NC(=O)C4CC4)cc3C(=O)N([C@H](C)CO)C[C@H]2C)cc1`, the cytotoxicity call with HSkMC and with HepG2 was “inactive” throughout. Also, the growth inhibition call in the assay with S. aureus RN4220 is “inactive”.
`COc1ccc(-c2cnc3c(c2)C(=O)N([C@H](C)CO)C[C@H](C)[C@H](CN(C)Cc2cccc(C(F)(F)F)c2)O3)cc1`: the cytotoxicity call in the assay with HSkMC and in the assay with HepG2 was “inactive” in each case. The growth inhibition call in the assay with S. aureus RN4220 was “inactive”.
Take `C[C@@H]1CN([C@H](C)CO)C(=O)Cc2cc(NC(=O)Cc3ccccc3)ccc2O[C@@H]1CN(C)S(C)(=O)=O`: the cytotoxicity call in the assay with HSkMC and in the assay with HepG2 was “inactive” in each case. Moreover, in the assay on S. aureus RN4220, the growth inhibition call was “inactive”.
With `C[C@H]1O[C@@H](O[C@H]2[C@@H](O)C[C@H](O[C@H]3[C@@H](O)C[C@H](O[C@H]4CC[C@@]5(C)[C@H](CC[C@@H]6[C@@H]5C[C@@H](O)[C@@]5(C)[C@@H](C7=CC(=O)OC7)CC[C@]65O)C4)O[C@@H]3C)O[C@@H]2C)C[C@H](O)[C@@H]1O`, the cytotoxicity call in the assay on HSkMC and with HepG2 was “active” throughout. Besides, the growth inhibition call with S. aureus RN4220 is “inactive”.
With `C[C@H](CO)N1C[C@H](C)[C@H](CN(C)Cc2ccncc2)Oc2ccc(NC(=O)CCCN(C)C)cc2C1=O`, the cytotoxicity call with HSkMC and with HepG2 was “inactive” each time. Moreover, the growth inhibition call in the assay with S. aureus RN4220 was “inactive”.
For `C[C@@H]1CN([C@H](C)CO)C(=O)c2cc(NC(=O)CCC(F)(F)F)ccc2O[C@@H](C)CCCCO[C@@H]1CN(C)Cc1ccc(C(=O)O)cc1`, the cytotoxicity call in the assay with HSkMC and with HepG2 was “inactive” throughout. Besides, the growth inhibition call in the assay with S. aureus RN4220 is “inactive”.
Regarding `O=P(O)(O)CN(CCN(CP(=O)(O)O)CP(=O)(O)O)CP(=O)(O)O`, the cytotoxicity call with HSkMC and in the assay on HepG2 was “inactive” throughout. The growth inhibition call in the assay with S. aureus RN4220 is “inactive”.
On to `C[C@@H]1CN([C@H](C)CO)C(=O)c2cc(NS(=O)(=O)c3ccc(Cl)cc3)ccc2O[C@H]1CN(C)Cc1ccc(Oc2ccccc2)cc1`, for which the cytotoxicity call in the assay on HSkMC and with HepG2 was “active” throughout. Besides, in the assay with S. aureus RN4220, the growth inhibition call is “inactive”.
Consider `CC(=O)N1CCN(c2ccnc3c2c(=O)n(CC(=O)NC(C)(C)C)c(=O)n3C)CC1`, for which the cytotoxicity call in the assay on HSkMC (human skeletal muscle cells) and in the assay with HepG2 was “inactive” in each case. Further, the growth inhibition call in the assay on S. aureus RN4220 is “inactive”.

For the origin of these results see the antibiotic and cytotoxicity screens of Wong et al. (2023).
